Values joined by “and” are separate entries in the source; they are usually repeats but may differ in a detail not shown here. Equal entries are not always repeated. Screen size: about 360,000 compounds; about 16,000 (4.4%) were called active. The inconclusive results got no clear call from the source; some entries with a clear call stand among them for comparison. The call rests on the fitted dose curve; in most records, active means well fitted inhibition curve with a large enough effect; inconclusive means small, poorly fitted or top-dose-only effect; inactive means no such curve, though single readings can be large or run the other way. A potency beside an inconclusive call is a rough fit, not a confirmed value.
target: Bromodomain adjacent to zinc finger domain protein 2B (Homo sapiens) (UniProt Q9UIF8); assay: qHTS Assay for Inhibitors of BAZ2B; settings: AlphaScreen BAZ2B-H3K14Ac peptide displacement; activity change, negative = inhibition: at 114 µM (top of the series) unless noted; further: nearly all actives have a fitted effect of over 60% in size
Procedure, shortened: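 Compounds, titrated to a top concentration of 110 uM, were incubated 30 min at room temperature with preformed BAZ2B/acetyl-K14 H3 peptide complex (50 nM each). Proximity signal was measured by AlphaScreen after 20 min with beads.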
On the % scale 0 is the no-effect control and ±100 the full control effect; potency means the concentration at half of the fitted maximal effect; tags describe the fitted curve by direction and shape.

Chain of UniProt Q9UIF8 (Q9UIF8 whole entry, looked up, the tested form may be a part): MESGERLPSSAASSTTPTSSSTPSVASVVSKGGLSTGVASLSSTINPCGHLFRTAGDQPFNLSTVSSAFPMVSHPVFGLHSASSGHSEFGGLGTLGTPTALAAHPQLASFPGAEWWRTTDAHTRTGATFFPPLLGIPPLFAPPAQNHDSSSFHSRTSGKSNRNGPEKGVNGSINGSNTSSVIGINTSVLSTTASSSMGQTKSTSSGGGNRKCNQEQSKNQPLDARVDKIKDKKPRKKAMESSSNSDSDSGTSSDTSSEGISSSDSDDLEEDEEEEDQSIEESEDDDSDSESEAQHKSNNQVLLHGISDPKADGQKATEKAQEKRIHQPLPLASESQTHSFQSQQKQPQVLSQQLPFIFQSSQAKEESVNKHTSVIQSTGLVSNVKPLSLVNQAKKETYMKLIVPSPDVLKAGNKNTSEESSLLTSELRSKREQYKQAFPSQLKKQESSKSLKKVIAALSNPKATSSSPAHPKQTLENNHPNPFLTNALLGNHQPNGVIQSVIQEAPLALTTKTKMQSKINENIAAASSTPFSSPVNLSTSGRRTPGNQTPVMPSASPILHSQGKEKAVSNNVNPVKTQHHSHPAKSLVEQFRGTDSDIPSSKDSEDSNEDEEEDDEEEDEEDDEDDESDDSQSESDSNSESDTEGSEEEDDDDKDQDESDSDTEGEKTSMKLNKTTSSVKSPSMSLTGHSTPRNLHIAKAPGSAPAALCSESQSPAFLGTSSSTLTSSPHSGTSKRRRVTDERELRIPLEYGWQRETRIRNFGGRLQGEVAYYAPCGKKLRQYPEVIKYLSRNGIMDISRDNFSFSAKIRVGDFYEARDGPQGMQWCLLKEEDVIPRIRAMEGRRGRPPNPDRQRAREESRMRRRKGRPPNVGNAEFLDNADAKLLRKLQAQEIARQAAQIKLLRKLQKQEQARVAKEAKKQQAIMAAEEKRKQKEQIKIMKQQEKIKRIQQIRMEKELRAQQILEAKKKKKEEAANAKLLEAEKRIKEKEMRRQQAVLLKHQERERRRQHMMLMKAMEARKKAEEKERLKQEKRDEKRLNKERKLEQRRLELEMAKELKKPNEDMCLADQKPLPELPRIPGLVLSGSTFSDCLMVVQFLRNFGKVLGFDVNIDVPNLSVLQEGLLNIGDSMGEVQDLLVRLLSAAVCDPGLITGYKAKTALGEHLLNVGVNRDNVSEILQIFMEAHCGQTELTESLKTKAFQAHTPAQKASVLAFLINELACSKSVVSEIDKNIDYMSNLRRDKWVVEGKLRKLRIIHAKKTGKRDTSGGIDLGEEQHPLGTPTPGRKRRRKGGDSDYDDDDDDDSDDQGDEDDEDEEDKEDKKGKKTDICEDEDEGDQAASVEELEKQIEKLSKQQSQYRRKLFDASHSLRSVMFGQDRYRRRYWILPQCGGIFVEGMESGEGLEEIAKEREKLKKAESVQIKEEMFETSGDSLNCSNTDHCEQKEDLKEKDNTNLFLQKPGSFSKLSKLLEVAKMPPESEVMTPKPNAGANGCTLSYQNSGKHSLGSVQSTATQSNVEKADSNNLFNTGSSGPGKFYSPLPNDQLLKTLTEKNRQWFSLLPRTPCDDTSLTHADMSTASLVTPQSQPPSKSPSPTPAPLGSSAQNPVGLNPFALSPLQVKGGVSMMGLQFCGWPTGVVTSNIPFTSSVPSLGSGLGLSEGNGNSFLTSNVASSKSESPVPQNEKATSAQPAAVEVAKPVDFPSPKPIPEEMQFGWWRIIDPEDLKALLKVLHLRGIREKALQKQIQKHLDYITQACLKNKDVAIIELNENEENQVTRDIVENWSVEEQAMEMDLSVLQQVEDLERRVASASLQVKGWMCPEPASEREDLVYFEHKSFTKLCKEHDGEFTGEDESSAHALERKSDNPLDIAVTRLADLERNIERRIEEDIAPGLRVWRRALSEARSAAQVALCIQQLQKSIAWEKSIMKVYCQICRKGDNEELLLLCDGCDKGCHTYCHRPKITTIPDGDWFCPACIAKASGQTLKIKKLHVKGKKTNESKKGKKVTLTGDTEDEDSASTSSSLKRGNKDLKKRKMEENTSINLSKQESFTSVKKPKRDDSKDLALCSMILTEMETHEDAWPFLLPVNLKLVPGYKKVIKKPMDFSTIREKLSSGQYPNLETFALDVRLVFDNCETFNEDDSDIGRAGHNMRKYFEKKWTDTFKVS

| SMILES | Potency | activity change, negative = inhibition |
| --- | --- | --- |
| O=[N+]([O-])c1ccccc1/C=C/c1ccc2ccccc2n1 | inconclusive: 35.5 µM [inhibitor, partial curve] |  |
| O=C(O)C1Nc2c(Cl)cc(Cl)cc2C2C=CCC12 (stereo not drawn) | active: 25.1 µM |  |
| CC(C)NCCCCOc1ccccc1-c1ccccc1 | inconclusive: 89.1 µM [inhibitor, single point] |  |
| CN(C(=O)/C=C/c1ccc([N+](=O)[O-])s1)c1ccccc1 | active: 39.8 µM |  |
| COc1ccc(N2CCC(CNC(=S)Nc3cccc(OC)c3)C2)cc1 (stereo not drawn) | active: 15.8 µM |  |
| O=C(CN1CCN(Cc2ccccc2)CC1)N/N=C/C=C/c1ccco1 |  | inactive: 2.8% |
| CN(C)NC1=CC(=[N+]2CCCC2)CC(C)(C)C1 |  | inactive: -10.6% |
| COc1ccc(C)cc1NS(=O)(=O)c1ccc2c(c1)N(C)CCO2 | inconclusive: 39.8 µM [inhibitor, partial curve] |  |
| CCOC(=O)c1c(NC(=O)CC)sc2c1CCN(Cc1ccccc1)C2 |  | inactive: -5.48% |
| O=C(COC(=O)c1cc(-c2ccccc2Cl)nc2ccccc12)Nc1ncc(C(F)(F)F)cc1Cl | inconclusive: 89.1 µM [inhibitor, single point] |  |
| Cc1ccc(Cl)cc1NC(=O)c1nnn(Cc2ccccc2)c1N |  | inactive: -1.88% |
| CCOC(=O)/C(=C\Nc1ccccc1C(F)(F)F)Sc1ncc(C(F)(F)F)cc1Cl |  | inactive: 10.9% |
| Cc1ccc(NC(=O)c2ccco2)cc1C | inconclusive: 4.47 µM [inhibitor, full curve, poor fit] |  |
| Cc1ccc(NC(=O)CSc2nc3ccccc3nc2Cc2ccccc2)c(Cl)c1 |  | inactive: 3.77% |
| CSc1ccc(CN(C)C(=O)c2cccc(S(=O)(=O)N3CCN(Cc4ccccc4)CC3)c2)cc1 |  | inactive: -29.5% |
| CC1CCN(S(=O)(=O)c2ccc(NC(=O)Cc3cccs3)cc2)CC1 | inconclusive: 44.7 µM [inhibitor, partial curve] |  |
| Cc1nnc2c3ccccc3nc(Nc3ccccc3C(=O)O)n12 |  | inactive: -32.3% |
| COc1ccc(C(=O)Nc2ccc(S(=O)(=O)Nc3onc(C)c3C)cc2)c(OC)c1 |  | inactive: -3.13% |
| c1coc(-c2ccc3ncnc(NCc4cccs4)c3c2)c1 | inconclusive: 50.1 µM [inhibitor, partial curve] |  |
| Cc1ccc(Nc2nc(CSc3nnc(-c4ccccc4C)n3C)cs2)cc1 | inconclusive: 79.4 µM [inhibitor, single point] |  |
| CC(=O)N1CCCc2cc(S(=O)(=O)N3CCC(C(=O)Nc4c(C)cccc4C)CC3)ccc21 |  | inactive: 4.87% |
| O=C(O)c1n[nH]nc1-c1ccccc1 | active: 56.2 µM |  |
| Cc1cccc(NC(=O)Cc2nc(-c3c[nH]c(C(=O)N4CCCC4)c3)cs2)c1 | inconclusive: 44.7 µM [inhibitor, partial curve] |  |
| COc1ccc(C(=O)n2nc(-c3cccnc3)nc2NCc2ccccc2)cc1OC |  | inactive: -9.75% |
| COc1ccccc1CNc1ncnc2onc(-c3ccc(F)cc3)c12 |  | inactive: 0.374% |
| O=C(Cn1cccc1)N1CCc2ccccc21 | inconclusive: 89.1 µM [inhibitor, single point] |  |

| SMILES | Potency | activity change, negative = inhibition |
| --- | --- | --- |
| N/C(=N\OC(=O)Cc1cccs1)c1ccc([N+](=O)[O-])cc1 | inconclusive: 35.5 µM [inhibitor, partial curve] |  |
| O=C1c2cccc3c([N+](=O)[O-])ccc(c23)C(=O)N1O | active: 50.1 µM |  |
| COc1ccc(-c2nc(CN3CCC(C(=O)NCc4ccc(C)cc4)CC3)c(C)o2)cc1OC | inconclusive: 89.1 µM [inhibitor, single point] |  |
| COc1ccc(/C=N\NC(=O)c2ccccc2[N+](=O)[O-])cc1COc1c(F)c(F)c(F)c(F)c1F | inconclusive: 79.4 µM [inhibitor, partial curve] |  |
| CCOC(=O)c1c(NC(C)=O)sc2c1CCCNC2=O | inconclusive: 89.1 µM [inhibitor, single point] |  |
| CC(C)(O)c1ccc2c(c1)CCC1C(C)(C(=O)O)CCCC21C (stereo not drawn) | inconclusive: 70.8 µM [inhibitor, partial curve] |  |
| CCOc1ccc(-n2c(N)c(C(=O)NCc3ccco3)sc2=S)cc1 |  | inactive: -39% |
| COC(=O)c1cc(S(=O)(=O)N2CCC(C)CC2)cn1C |  | inactive: 0.699% |
| Nc1ccc2c(c1)C/C(=C/c1ccco1)C2=O | inconclusive: 89.1 µM [inhibitor, single point] |  |
| COc1ccc(OC2CCN(S(=O)(=O)c3ccccc3)CC2)cc1 |  | inactive: 9.59% |
| COn1c(SCC(N)=O)nc2ccccc2c1=O | inconclusive: 89.1 µM [inhibitor, single point] |  |
| COc1ccc2nc(SCC(O)c3cccc(Br)c3)[nH]c2c1 (stereo not drawn) |  | inactive: -11.3% |
| c1ccc(-c2nnc(-c3ccccc3)nn2)cc1 | inconclusive: 2.51 µM [inhibitor, full curve] |  |
| Cc1onc(-c2c(Cl)cccc2Cl)c1C(=O)Nc1ccc(N2CCOCC2)cc1 | inconclusive: 79.4 µM [inhibitor, single point] |  |
| O=C(Nc1ccccc1C(F)(F)F)c1cc2nc(-c3ccccc3)cc(-c3ccccc3)n2n1 |  | inactive: 2.01% |
| C[C@@H](C(=O)NC1CCCC1)N1C(=O)N2CCc3c([nH]c4ccccc34)[C@@]2(C)C1=O |  | inactive: -29.9% |
| Cc1ccnc(NC(=O)Nc2cccc(F)c2)c1 |  | inactive: 3.99% |
| Clc1ccc(OCCN2CCOCC2)cc1 |  | inactive: -12.3% |
| COc1ccc(-c2oc3ccccc3c(=O)c2OC(=O)c2ccc(C)cc2)cc1 |  | inactive: 0.315% |
| Cc1ccnc(NS(=O)(=O)c2ccc(NC(=O)Cc3cccs3)cc2)n1 | active: 50.1 µM |  |
| CCS(=O)(=O)N1CCN(CC2CC3C=CC2C3)CC1 (stereo not drawn) | active: 50.1 µM |  |
| Cc1cccc(N2C(=O)C(O)=C(C(=O)c3cccs3)C2c2ccc(F)cc2)n1 (stereo not drawn) | inconclusive: 70.8 µM [inhibitor, single point] |  |
| c1ccc(-c2nc(NCc3cccnc3)c3oc4ccccc4c3n2)cc1 | active: 50.1 µM |  |
| CC(=O)Nc1ccc(N2CCC(C)CC2)c([N+](=O)[O-])c1 | inconclusive: 31.6 µM [inhibitor, full curve] |  |
| O=C1c2cccc3c(O)ccc(c23)C(=O)N1c1ccc(Cl)cc1 |  | inactive: 11.5% |
| O=C(COc1ccccc1Cl)Nc1cc(NC(=O)COc2ccccc2Cl)cc(C(=O)O)c1 | active: 50.1 µM |  |

| SMILES | Potency | activity change, negative = inhibition |
| --- | --- | --- |
| COc1ccc2c(c1)c(CC(=O)Nc1cc(C)cc(C)c1)c(C)n2C(=O)c1ccc(Cl)cc1 | inconclusive: 89.1 µM [inhibitor, single point] |  |
| C/C(=N\Nc1nc(C)c(C)s1)c1ccc([N+](=O)[O-])cc1 | active: 35.5 µM |  |
| CCOc1cc(S(=O)(=O)NCCc2c(C)[nH]c3ccc(C)cc23)ccc1F | active: 35.5 µM |  |
| O=C(Nc1ccccc1-c1ccccc1)C(=O)Nc1ccccc1-c1ccccc1 | inconclusive: 79.4 µM [inhibitor, single point] |  |
| O=C(NCCc1ccccc1)c1ccc(-c2ccccc2C(F)(F)F)o1 |  | inactive: -3.55% |
| Cc1ccc(C)c(S(=O)(=O)N2CCN(C(=O)/C=C/c3ccco3)CC2)c1 | inconclusive: 79.4 µM [inhibitor, single point] |  |
| O=C(NCc1cccnc1)/C(=C/c1ccc(-c2ccc(Cl)cc2)o1)S(=O)(=O)c1ccccc1 | inconclusive: 50.1 µM [inhibitor, partial curve] |  |
| COc1cccc(CNCc2ccccn2)c1OC | inconclusive: 56.2 µM [inhibitor, partial curve, poor fit] |  |
| Cc1nnc(N/N=C/c2ccccc2O)n1N | active: 39.8 µM |  |
| COc1ccc2c(CNC3CCCCCC3)c(C(=O)O)n(Cc3ccc(C)cc3)c2c1 | inconclusive: 79.4 µM [inhibitor, single point] |  |
| Cc1cc(F)ccc1NC(=O)Cn1nc(N2CCN(c3ccccc3)CC2)ccc1=O | inconclusive: 70.8 µM [inhibitor, single point] |  |
| COc1ccccc1NC(=O)c1ccccc1S(=O)(=O)c1ccc([N+](=O)[O-])cc1 |  | inactive: -33.4% |
| CC(=O)Nc1cc(C(=O)NCc2ccco2)ccc1Sc1ccc(C)cc1 | inconclusive: 70.8 µM [inhibitor, single point] |  |
| COc1cc(OC)c(NS(=O)(=O)c2c(C)nc3sc(C)cn3c2=O)cc1Cl | inconclusive: 79.4 µM [inhibitor, single point] |  |
| COC(=O)c1cc2c(ccn2-c2ccc(F)cc2)n1CC(C)C | inconclusive: 44.7 µM [inhibitor, partial curve] |  |
| Cc1cc(C)c(OCCCNC2CCCC2)c(Br)c1 | inconclusive: 89.1 µM [inhibitor, single point] |  |
| CS(=O)(=O)CC[C@@H](C(=O)NCCc1ccccc1)N1Cc2ccccc2C1=O |  | inactive: -6.1% |
| Cc1ccc(OC2=NS(=O)(=O)c3ccccc32)cc1 | inconclusive: 89.1 µM [inhibitor, single point] |  |
| CC(Cc1c[nH]c2ccccc12)C(=O)O (stereo not drawn) | active: 44.7 µM |  |
| COCCNC(=S)N(CCc1c(C)[nH]c2ccc(C)cc12)Cc1cc(OC)c(OC)c(OC)c1 | inconclusive: 70.8 µM [inhibitor, partial curve, poor fit] |  |
| CN1C(=O)/C(=N\OC(=O)c2cccc3ccccc23)c2ccccc21 | inconclusive: 70.8 µM [inhibitor, single point] |  |
| CN(c1nnc(NC(=O)Nc2ccccc2C(F)(F)F)s1)C1CCCCC1 |  | inactive: -16.8% |
| Cc1c2cc(O)c(=O)cc-2oc2cc(O)c(O)cc12 | active: 1.78 µM and active: 4.47 µM |  |
| O=C(CSc1nnc(C2CC2)n1C1CC1)c1ccc(F)cc1 |  | inactive: 11.6% |
| CC1CCN(S(=O)(=O)c2cc(F)ccc2CN2C(=O)c3cccnc3C2=O)CC1 | active: 56.2 µM |  |
| COc1ccc2[nH]c(O)c(N=NC(=O)c3ccc(NS(=O)(=O)c4cccs4)cc3)c2c1 | active: 50.1 µM |  |
